Assay results taken from ChEMBL document CHEMBL4888484, “Replenishing the malaria drug discovery pipeline: Screening and hit evaluation of the MMV Hit Generation Library 1 (HGL1) against asexual blood stage Plasmodium falciparum ,using a nano luciferase reporter read-out” (2022).
Screen size: about 150,000 compounds; about 540 (0.36%) showed an effect of 50% or more. This is one part of the list.

Tested on: Plasmodium falciparum
Experiment: Primary screen in NF54 nanoGlo assay, in single point, at 2uM, 72h; a lower Z score goes with more inhibition
Type: functional, Erythrocyte
Details: timepoint 72 hour

Row | SMILES | % Inhibition | Z score
1 | Cc1noc(C(C)C)c1NC(=O)N1CCOC[C@H]1c1ccco1 | -6% | 0.93
2 | O=S(=O)(c1ccc2c(c1)CCO2)N1CCN(c2cnccn2)CC1 | -3% | 0.46
3 | CCn1ccnc1CN(C)Cc1cccc2nonc12 | -8% | 1.06
4 | Cc1n[nH]c(C)c1NC(=O)CCCCOc1cccc(C#N)c1 | -6% | 1.12
5 | CC(C)Cc1nc(C(=O)N[C@H]2CCc3nccn3C2)cs1 | -6% | 0.82
6 | Cc1nc(C)c(C(=O)N2CCc3sccc3[C@@H]2C)s1 | 3% | -0.63
7 | COc1ccc([C@@H]2COCCN2Cc2[nH]c(C)nc2C)cc1 | -3% | 0.69
8 | CC1CC(C(=O)O)CC(C)N1Cc1ccn(-c2ccc(Cl)cc2)n1 (stereo unspecified) | -13% | 2.13
9 | C[C@@H](CO)NC(=O)Nc1cc(Br)c(F)cc1Cl | 34% | -1.23
10 | Cc1ncnc2c1ncn2-c1cccc(NC(=O)c2ccc3c(c2)OCO3)c1 | -16% | 2.27
11 | CCc1cc(C(=O)N2CCC(CCN(CC)CC3CC3)CC2)sc1C | 6% | -0.71
12 | Cc1ccc(CC(=O)Nc2[nH]nnc2C(=O)N2CCCC2)cc1C | 10% | -1.2
13 | O=C(Nc1nn2cc(-c3ccccc3)nc2s1)C1CCCC1 | 10% | -1.13
14 | Clc1ccc(-c2ccnc3nc([C@@H]4CCCO4)nn23)c(Cl)c1 | 8% | -1.04
15 | CCn1cncc1S(=O)(=O)N1CCOCC2(CC2)C1 | 1% | -0.25
16 | COc1cccc(C(=O)N(Cc2cccc(Cl)c2)[C@H]2CCS(=O)(=O)C2)c1 | -13% | 1.12
17 | O=C(Nc1ccccc1F)c1nnc(CNS(=O)(=O)c2ccccc2)s1 | 12% | -1.41
18 | OC(Cc1ccccc1)CN(Cc1ccccc1)CC1CC(c2ccccc2F)=NO1 (stereo unspecified) | -8% | 1.68
19 | CCOc1ccc(CN2C(=O)CC[C@@]2(C)C(=O)NCCC(C)C)cc1 | 2% | -0.24
20 | Cc1ccc([C@@H]2CCCCCN2C(=O)Nc2ccccc2C(F)(F)F)s1 | -2% | 0.31
21 | CCCCN(C)S(=O)(=O)NCCc1cc(C)ccc1OC | 3% | -0.61
22 | CN1CC[C@](C)(CN(C)S(=O)(=O)Cc2ccc(Cl)cc2F)C1 | -3% | 0.62

Row | SMILES | % Inhibition | Z score
23 | c1c[nH]c(-c2nc([C@H]3CCOC3)nn2C2Cc3ccccc3C2)c1 | -7% | 1.22
24 | O=C1CCCCCN1CCc1ncnn1C1CCCCC1 | 1% | -0.16
25 | CNC(=O)c1ccccc1NCC(C)(C)C(=O)NC | 2% | -0.2
26 | Cc1n[nH]cc1CNC(=O)c1ccc(C(F)(F)F)c(=O)[nH]1 | 3% | -0.42
27 | COc1ccc(-c2c(C)nn3c(O)cc(Cc4ccccc4)nc23)cc1OC | 35% | -3.92
28 | O=C(NC1CCCCCC1CO)c1cc(C2CC2)on1 (stereo unspecified) | -7% | 0.84
29 | O=C(NCc1cccnc1Oc1ccc(F)cc1F)c1c[nH]c(=O)[nH]1 | -19% | 2.79
30 | O=C(NC[C@H]1CCCC[C@@H]1O)c1cc2n(n1)CCC2 | -4% | 0.58
31 | Cc1cnc(N2CC[C@H](c3cnn(C)c3)C2)c(Br)c1 | -7% | 1.29
32 | Cc1nc(C(Cl)(Cl)Cl)nc(C(Cl)(Cl)Cl)n1 | 6% | -0.7
33 | CC1CCC(C(=O)N2CC[S+]([O-])C(C)(C)C2)O1 (stereo unspecified) | 23% | -2.6
34 | CN(Cc1ccccc1)S(=O)(=O)N1CCO[C@H](c2ccccc2)C1 | -15% | 1.5
35 | COc1ccc(NC(=O)Cn2cc(S(=O)(=O)N3CCCCC3)ccc2=O)cc1 | -5% | 1.02
36 | C1CCC2(C1)C[C@@H](Nc1nc(C3CC3)ns1)CCO2 | -16% | 2.44
37 | COc1ccccc1NC(=O)COc1ccc(S(=O)(=O)N2CCCCCC2)cc1 | -49% | 5.79
38 | COc1cc(CN(C)[C@H]2CCc3nn(C)c(=O)n3CC2)ccc1OCC(C)C | 10% | -1.74
39 | CCN(CCO)C(=O)NC1CCCC(C)C1C (stereo unspecified) | -6% | 0.73
40 | CC(C)(C)n1ncn(Cc2csc(C3CC3)n2)c1=O | -9% | 0.92
41 | CNc1snc(C)c1C(=O)N(C)C[C@H](C)c1ccccc1 | -5% | 0.46
42 | O=C(c1ccco1)N1CCN(C(=O)c2nnn3c2CO[C@H](c2ccccc2)C3)CC1 | -13% | 1.17
43 | CN1C[C@H](NC(=O)Cc2ccccc2F)C[C@H]1CO | -12% | 2.26
